From patent publication US20260297081A1, “COMPOUNDS AND METHODS OF TREATING CANCERS” (Cullgen Inc., priority 2023, published 2026)
The name of at least one read-out is uncertain.

System: cyclin D1
Assay: HiBiT detection of HiBiT-tagged cyclin D1 protein level in MCF7 cells, 16 hours (Table 8)
Assay type: cell-based
Conditions: MCF7 cells stably expressing HiBiT tagged target proteins

Compound | % Cyclin D1 Relative Level (10 nM) | % Cyclin D1 Relative Level (100 nM)
CC(=O)c1c(C)c2cnc(Nc3ccc(N4CCC5(CC4)CC5C(=O)NC4CC5(C4)CC(Nc4nc(NC(C)C)ccc4C(=O)Nc4ccc(N(C)C)nn4)C5)cn3)nc2n(C2CCCC2)c1=O (stereo not shown) [CPD-414, 6-(6-((6-acetyl-8-cyclopentyl-5-methyl-7-oxo-7,8-dihydropyrido[2,3-d]pyrimidin-2-yl)amino)pyridin-3-yl)-N-(6-((3-((6-(dimethylamino)pyridazin-3-yl)carbamoyl)-6-(isopropylamino)pyridin-2-yl)amino)spiro[3.3]heptan-2-yl)-6-azaspiro[2.5]octane-1-carboxamide] | A (Relative protein level ≤55%) | A (Relative protein level ≤55%)
CC(=O)c1c(C)c2cnc(Nc3ccc(CN4CCN(CC(=O)N5CC6(CC(Nc7nc(NC(C)C)ccc7C(=O)Nc7ccc(N(C)C)nn7)C6)C5)CC4)cn3)nc2n(C2CCCC2)c1=O [CPD-422, 2-((2-(2-(4-((6-((6-acetyl-8-cyclopentyl-5-methyl-7-oxo-7,8-dihydropyrido[2,3-d]pyrimidin-2-yl)amino)pyridin-3-yl)methyl)piperazin-1-yl)acetyl)-2-azaspiro[3.3]heptan-6-yl)amino)-N-(6-(dimethylamino)pyridazin-3-yl)-6-(isopropylamino)nicotinamide] | A (Relative protein level ≤55%) | B (55%< Relative protein level ≤85%)
CC(=O)c1c(C)c2cnc(Nc3ccc(N4CCC(N(C)CC(=O)N5CC6(CC(Nc7nc(NC(C)C)ccc7C(=O)Nc7ccc(N(C)C)nn7)C6)C5)CC4)cn3)nc2n(C2CCCC2)c1=O [CPD-425, 2-((2-(N-(1-(6-((6-acetyl-8-cyclopentyl-5-methyl-7-oxo-7,8-dihydropyrido[2,3-d]pyrimidin-2-yl)amino)pyridin-3-yl)piperidin-4-yl)-N-methylglycyl)-2-azaspiro[3.3]heptan-6-yl)amino)-N-(6-(dimethylamino)pyridazin-3-yl)-6-(isopropylamino)nicotinamide] | A (Relative protein level ≤55%) | A (Relative protein level ≤55%)
CC(=O)c1c(C)c2cnc(Nc3ccc(N4CCN(CC(=O)NCC56CC(Nc7nc(NC(C)C)ccc7C(=O)Nc7ccc(N(C)C)nn7)(C5)C6)CC4)cn3)nc2n(C2CCCC2)c1=O [CPD-429, 2-((3-((2-(4-(6-((6-acetyl-8-cyclopentyl-5-methyl-7-oxo-7,8-dihydropyrido[2,3-d]pyrimidin-2-yl)amino)pyridin-3-yl)piperazin-1-yl)acetamido)methyl)bicyclo[1.1.1]pentan-1-yl)amino)-N-(6-(dimethylamino)pyridazin-3-yl)-6-(isopropylamino)nicotinamide] | B (55%< Relative protein level ≤85%) | B (55%< Relative protein level ≤85%)
[2H]C([2H])([2H])Nc1ccc(C(=O)Nc2cc(C)n(C)n2)c(NC2CC3(C2)CN(C(=O)CN2CCC4(CCN(c5ccc(Nc6ncc7c(C)c(C(C)=O)c(=O)n(C8CCCC8)c7n6)nc5)C4)C2)C3)n1 (stereo not shown) [CPD-447, 2-((2-(2-(7-(6-((6-acetyl-8-cyclopentyl-5-methyl-7-oxo-7,8-dihydropyrido[2,3-d]pyrimidin-2-yl)amino)pyridin-3-yl)-2,7-diazaspiro[4.4]nonan-2-yl)acetyl)-2-azaspiro[3.3]heptan-6-yl)amino)-N-(1,5-dimethyl-1H-pyrazol-3-yl)-6-((methyl-d3)amino)nicotinamide] | B (55%< Relative protein level ≤85%) | A (Relative protein level ≤55%)
CC(=O)c1c(C)c2cnc(Nc3ccc(N4CCC5(CCN(CC(=O)N6CC7(CC(Nc8nc(NC(C)C)ccc8C(=O)Nc8ccc(N(C)C)nn8)C7)C6)C5)C4)cn3)nc2n(C2CCCC2)c1=O (stereo not shown) [CPD-448, 2-((2-(2-(7-(6-((6-acetyl-8-cyclopentyl-5-methyl-7-oxo-7,8-dihydropyrido[2,3-d]pyrimidin-2-yl)amino)pyridin-3-yl)-2,7-diazaspiro[4.4]nonan-2-yl)acetyl)-2-azaspiro[3.3]heptan-6-yl)amino)-N-(6-(dimethylamino)pyridazin-3-yl)-6-(isopropylamino)nicotinamide] | B (55%< Relative protein level ≤85%) | B (55%< Relative protein level ≤85%)
[2H]C([2H])([2H])Nc1ccc(C(=O)Nc2ccc(N(C)C)nn2)c(NC2CC3(C2)CN(C(=O)C(C)N2CCN(Cc4ccc(Nc5ncc6c(C)c(C(C)=O)c(=O)n(C7CCCC7)c6n5)nc4)CC2)C3)n1 (stereo not shown) [CPD-456, 2-((2-(2-(4-((6-((6-acetyl-8-cyclopentyl-5-methyl-7-oxo-7,8-dihydropyrido[2,3-d]pyrimidin-2-yl)amino)pyridin-3-yl)methyl)piperazin-1-yl)propanoyl)-2-azaspiro[3.3]heptan-6-yl)amino)-N-(6-(dimethylamino)pyridazin-3-yl)-6-((methyl-d3)amino)nicotinamide] | B (55%< Relative protein level ≤85%) | B (55%< Relative protein level ≤85%)
CC(=O)c1c(C)c2cnc(Nc3ccc(N4CCN(C5CCN(C(=O)N6CCC(Nc7nc(NC(C)C)ccc7C(=O)Nc7ccc(N(C)C)nn7)CC6)C5)CC4)cn3)nc2n(C2CCCC2)c1=O (stereo not shown) [CPD-469, 2-((1-(3-(4-(6-((6-acetyl-8-cyclopentyl-5-methyl-7-oxo-7,8-dihydropyrido[2,3-d]pyrimidin-2-yl)amino)pyridin-3-yl)piperazin-1-yl)pyrrolidine-1-carbonyl)piperidin-4-yl)amino)-N-(6-(dimethylamino)pyridazin-3-yl)-6-(isopropylamino)nicotinamide] | B (55%< Relative protein level ≤85%) | B (55%< Relative protein level ≤85%)
CC(=O)c1c(C)c2cnc(Nc3ccc(CN4CCN(CC(=O)NC5CC6(C5)CC(Nc5nc(NC(C)C)ccc5C(=O)Nc5ccc(N(C)C)nn5)C6)CC4)cn3)nc2n(C2CCCC2)c1=O (stereo not shown) [CPD-472, 2-((6-(2-(4-((6-((6-acetyl-8-cyclopentyl-5-methyl-7-oxo-7,8-dihydropyrido[2,3-d]pyrimidin-2-yl)amino)pyridin-3-yl)methyl)piperazin-1-yl)acetamido)spiro[3.3]heptan-2-yl)amino)-N-(6-(dimethylamino)pyridazin-3-yl)-6-(isopropylamino)nicotinamide] | B (55%< Relative protein level ≤85%) | B (55%< Relative protein level ≤85%)
CC(=O)c1c(C)c2cnc(Nc3ccc(CN4CCN(CC(=O)NC5CCC(Nc6nc(NC(C)C)ccc6C(=O)Nc6ccc(N(C)C)nn6)CC5)CC4)cn3)nc2n(C2CCCC2)c1=O (stereo not shown) [CPD-473, 2-((4-(2-(4-((6-((6-acetyl-8-cyclopentyl-5-methyl-7-oxo-7,8-dihydropyrido[2,3-d]pyrimidin-2-yl)amino)pyridin-3-yl)methyl)piperazin-1-yl)acetamido)cyclohexyl)amino)-N-(6-(dimethylamino)pyridazin-3-yl)-6-(isopropylamino)nicotinamide] | B (55%< Relative protein level ≤85%) | A (Relative protein level ≤55%)
[2H]C([2H])([2H])Nc1ccc(C(=O)Nc2ccc(N(C)C)nn2)c(N[C@H]2CC[C@H](C(=O)N3CCC(N4CCN(c5ccc(Nc6ncc7c(C)c(C(C)=O)c(=O)n(C8CCCC8)c7n6)nc5)CC4)C3)CC2)n1 (stereo partly drawn) [CPD-476, 2-((trans-4-(3-(4-(6-((6-acetyl-8-cyclopentyl-5-methyl-7-oxo-7,8-dihydropyrido[2,3-d]pyrimidin-2-yl)amino)pyridin-3-yl)piperazin-1-yl)pyrrolidine-1-carbonyl)cyclohexyl)amino)-N-(6-(dimethylamino)pyridazin-3-yl)-6-((methyl-d3)amino)nicotinamide] | B (55%< Relative protein level ≤85%) | –
CC(=O)c1c(C)c2cnc(Nc3ccc(N4CCN(C5CCN(C(=O)[C@H]6CC[C@H](Nc7nc(NC(C)C)ccc7C(=O)Nc7cc(C)n(C)n7)CC6)C5)CC4)cn3)nc2n(C2CCCC2)c1=O (stereo partly shown) [CPD-478, 2-((4-(3-(4-(6-((6-acetyl-8-cyclopentyl-5-methyl-7-oxo-7,8-dihydropyrido[2,3-d]pyrimidin-2-yl)amino)pyridin-3-yl)piperazin-1-yl)pyrrolidine-1-carbonyl)cyclohexyl)amino)-N-(1,5-dimethyl-1H-pyrazol-3-yl)-6-(isopropylamino)nicotinamide] | B (55%< Relative protein level ≤85%) | A (Relative protein level ≤55%)
CC(=O)c1c(C)c2cnc(Nc3ccc(CN4CCN(CC(=O)NCC56CC(Nc7nc(NC(C)C)ccc7C(=O)Nc7ccc(N(C)C)nn7)(C5)C6)CC4)cn3)nc2n(C2CCCC2)c1=O [CPD-479, 2-((3-((2-(4-((6-((6-acetyl-8-cyclopentyl-5-methyl-7-oxo-7,8-dihydropyrido[2,3-d]pyrimidin-2-yl)amino)pyridin-3-yl)methyl)piperazin-1-yl)acetamido)methyl)bicyclo[1.1.1]pentan-1-yl)amino)-N-(6-(dimethylamino)pyridazin-3-yl)-6-(isopropylamino)nicotinamide] | B (55%< Relative protein level ≤85%) | –
[2H]C([2H])([2H])Nc1ccc(C(=O)Nc2cn(C)c(C3CC3)n2)c(N[C@H]2CC[C@H](C(=O)N3CCC(N4CCN(c5ccc(Nc6ncc7c(C)c(C(C)=O)c(=O)n(C8CCCC8)c7n6)nc5)CC4)C3)CC2)n1 (stereo partly shown) [CPD-480, 2-((4-(3-(4-(6-((6-acetyl-8-cyclopentyl-5-methyl-7-oxo-7,8-dihydropyrido[2,3-d]pyrimidin-2-yl)amino)pyridin-3-yl)piperazin-1-yl)pyrrolidine-1-carbonyl)cyclohexyl)amino)-N-(2-cyclopropyl-1-methyl-1H-imidazol-4-yl)-6-((methyl-d3)amino)nicotinamide] | C (Relative protein level >85%) | –
